Assay [1] deals with GST-tagged EhJAB1 deletion mutant Δ 5 (deletion of 187–318 aa) (Entamoeba histolytica) (UniProt C4LTS3). In words: pull-down; GST-EhJAB1 (full length or deletion mutant) or GST from bacterial lysate immobilised on MagneGST magnetic beads, washed, incubated with 1 µg purified EhMIF overnight at 4 °C; immunoblot with anti-EhMIF; both purified.
For assay [2], the target named is GST-tagged EhJAB1 deletion mutant Δ 6 (deletion of 247–318 aa) (Entamoeba histolytica) (UniProt C4LTS3). The assay is described as above.
For assay [3], the target named is GST-tagged EhJAB1 deletion mutant Δ 2 (deletion of 51–133 aa) (Entamoeba histolytica) (UniProt C4LTS3). The assay is described as above.
The target of assay [4] is GST-tagged EhJAB1 deletion mutant Δ 3 (deletion of 134–147 aa) (Entamoeba histolytica) (UniProt C4LTS3). The description is as above.
Assay [5] deals with GST-tagged EhJAB1 deletion mutant Δ 1 (deletion of 3–50 aa) (Entamoeba histolytica) (UniProt C4LTS3). The description is as above.
Assay [6] concerns the target GST-tagged EhJAB1 deletion mutant Δ 4 (deletion of 148–187 aa) (Entamoeba histolytica) (UniProt C4LTS3). The description is as above.
The target in assay [7] is T1, GST-tagged full-length EhJAB1 (Entamoeba histolytica) (UniProt C4LTS3).
T1 sequence: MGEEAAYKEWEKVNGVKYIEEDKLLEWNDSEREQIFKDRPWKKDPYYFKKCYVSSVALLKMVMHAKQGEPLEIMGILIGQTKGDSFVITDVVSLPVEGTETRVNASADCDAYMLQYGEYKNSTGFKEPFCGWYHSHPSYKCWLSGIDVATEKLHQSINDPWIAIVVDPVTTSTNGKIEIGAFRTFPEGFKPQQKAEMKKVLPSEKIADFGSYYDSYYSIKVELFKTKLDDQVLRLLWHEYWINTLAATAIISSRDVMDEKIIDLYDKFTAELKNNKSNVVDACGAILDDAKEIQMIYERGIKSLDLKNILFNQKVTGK
The description is as above.

Assay [8] concerns the target T2, Entamoeba histolytica MIF (EhMIF), recombinant (Entamoeba histolytica) (UniProt C4LV00).
T2 sequence: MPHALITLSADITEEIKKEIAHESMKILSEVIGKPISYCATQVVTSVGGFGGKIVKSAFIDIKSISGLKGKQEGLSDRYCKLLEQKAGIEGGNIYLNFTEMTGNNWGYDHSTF
In words: pull-down; competition: EhMIF pre-incubated 30 minutes with or without 1X, 2X or 5X EhJAB1, then GST-CD74 bound magnetic beads overnight at 4 °C; immunoblot with anti-EhMIF; both purified.

Assay [9] has as its target T2, Entamoeba histolytica MIF (EhMIF), recombinant (Entamoeba histolytica). Put plainly: co-IP; 1.5 µg EhMIF mixed with 500 ng biotinylated tag free EhJAB1, anti-EhMIF rabbit serum or rabbit IgG on Dynabeads, overnight at 4 °C; blot with anti-biotin HRP; both purified.

No constants are given. Whether binding was seen depends on the method and setting. Some entries that bind do so weakly or less than the wild type. Tags and fused reporters may be left off the sequences shown.

B1: Entamoeba histolytica MIF (EhMIF), recombinant (natural protein)
chain: T2 sequence
Take B1: the binding entry is listed as “no binding” in [1]; “binds” in assay [2]; “binds” in assay [3]; “binds” in assay [4]; “binds” in assay [5]; “binds” in [6]. Moreover, the binding entry in [7] is given as “binds”.

B2: tag free EhJAB1 protein (non-biotinylated) (protein, UniProt C4LTS3 1-318)
chain: T1 sequence
In the case of B2, in [8], the binding entry is given as “binds”.

B3: biotinylated tag free EhJAB1 (protein, UniProt C4LTS3 1-318)
chain: T1 sequence
modifications: biotinylated (EZ-Link Sulfo-NHS-LC-Biotinylation kit)
As for B3, the binding result in assay [9] was “binds”.

The record behind these values is paper PMC6035221, “Interaction between parasite-encoded JAB1/CSN5 and macrophage migration inhibitory factor proteins attenuates its proinflammatory function” (Scientific Reports, 2018).
